Measured values taken from PubChem BioAssay AID504832 (National Center for Advancing Translational Sciences (NCATS), 2011).
“And” between values parts separate entries of the source, which are not always exact repeats. Equal values may be shown once. The whole screen tested about 310,000 compounds, of which about 18,000 (5.8%) were called active. The shares of active, inactive and inconclusive entries below differ from those in the screen. The call rests on the fitted dose curve; in most records, active means well fitted inhibition curve with a large enough effect; inconclusive means small, poorly fitted or top-dose-only effect, or another doubt; inactive means no such curve, though single readings can be large or run the other way. A potency beside an inconclusive call is a rough fit, not a confirmed value.

Assay: Primary qHTS for delayed death inhibitors of the malarial parasite plastid, 48 hour incubation
Settings: P. falciparum luciferase growth in erythrocytes; series mostly up to 28.7 µM
How it was run: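 Parasite viability was followed by luminescence of a genomically integrated firefly luciferase. Cultures held 0.1% parasitemia at 2% hematocrit (final), incubated under 5% CO2 at 37 C.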
Potency means the concentration at half of the fitted maximal effect; tags describe the fitted curve by direction and shape.

SMILES | Potency
C/C=C(\C)C(=O)N[C@@H](C)CN1C2=NC[C@H](C(C)C)N2C[C@H]1Cc1ccc(OC)cc1 | inconclusive: 18.5 µM [inhibitor, single point]
COC(=O)C(Cc1cnc(Cl)s1)(C(=O)OC)c1ccc([N+](=O)[O-])cc1[N+](=O)[O-] | inactive
Cn1cc(C(=O)NC2CCCCCC2)c(=O)c2cc(S(=O)(=O)N3CCCC3)ccc21 | inactive
O=C1CC(Nc2ccc(N3CCOCC3)cc2)C(=O)N1C1CCCCC1 (stereo not drawn) | inactive
CCn1c(SCC(=O)Nc2nc3c(s2)CCCC3)nnc1-c1ccccc1 | active: 2.08 µM
COc1cc(-c2nc3cc(C)ccn3c2NC2CCCCC2)ccc1-c1ccc(C(C)=O)cc1 | active: 5.22 µM
C/C(=N\NC(=O)c1nnn(-c2nonc2N)c1CSc1ccc(Cl)cc1)c1cccnc1 | inconclusive: 4.15 µM [inhibitor, single point]
CCOc1cc(C#N)c(NC(=O)c2cccnc2)cc1OCC | inconclusive: 0.0037 µM [inhibitor, full curve, poor fit]
CCOc1ccccc1-n1c(SCC(=O)Nc2ccc(CC)cc2)nc2n[nH]c(C)c2c1=N | inconclusive: 18.5 µM [inhibitor, single point]
Cc1oc(-c2ccc(F)cc2)cc1-c1nn2c(-c3ccoc3C)nnc2s1 | inconclusive: 18.5 µM [inhibitor, single point]
O=C(O/N=C1/CCSc2ccccc21)c1ccc(F)cc1 | inactive
Cc1c(NC(=O)C(C)n2cc([N+](=O)[O-])cn2)c(=O)n(-c2ccccc2)n1C (stereo not drawn) | inconclusive: 18.5 µM [inhibitor, single point]
O=C(c1ccc(S(=O)(=O)N2CCCCCC2)cc1)N1CCN(Cc2ccccc2)CC1 | inconclusive: 10.4 µM [inhibitor, single point]
Cc1ccccc1OCc1n(CC(=O)OC2CC(C)CCC2C(C)C)c2ccccc2[n+]1C (stereo not drawn) | inconclusive: 5.86 µM [inhibitor, partial curve] and inconclusive: 18.5 µM [inhibitor, single point]
CCN1CCN(Cc2c(C(=O)N/N=C(\C)c3ccc(Cl)c(Cl)c3)nnn2-c2nonc2N)CC1 | inconclusive: 10.4 µM [inhibitor, single point]
COc1cc2nc(Nc3ccc(C)c(Cl)c3)nc(N)c2cc1OC | active: 0.586 µM
COc1cc(C(=O)Nc2nc(C)c(Cc3ccc4c(c3)OCO4)s2)cc(OC)c1OC | inconclusive: 10.4 µM [inhibitor, single point]
O=C(N=C1SC2CS(=O)(=O)CC2N1Cc1ccc(F)cc1)C1CCCO1 (stereo not drawn) | inactive
CC(C(=O)NC1CC(C)(C)NC(C)(C)C1)c1ccc([N+](=O)[O-])cc1 (stereo not drawn) | inactive
COc1cc(/C=C/C(=O)OCC(=O)Nc2ccc(Cl)cn2)ccc1O | inconclusive: 18.5 µM [inhibitor, single point]
COc1ccc(NC(C)=O)cc1S(=O)(=O)N1CCN(C/C=C/c2ccccc2)CC1 | inactive
Nc1nc(SCC(=O)C23CC4CC(CC(C4)C2)C3)n[nH]1 | inconclusive: 0.928 µM [inhibitor, partial curve, poor fit]

SMILES | Potency
O=C(COC(=O)c1c[nH]c(=O)[nH]c1=O)Nc1cccc([N+](=O)[O-])c1 | inactive
CC(=O)N1c2ccc(S(=O)(=O)NCC3CCC(C(=O)Nc4cc(C)ccn4)CC3)cc2CC1C (stereo not drawn) | inconclusive: 11.7 µM [inhibitor, partial curve]
O=C(C1CC(c2ccc(F)cc2)=NO1)N1CCCc2ccccc21 (stereo not drawn) | inactive
c1cncc(-c2nnc3n2N=C(c2cccs2)CS3)c1 | inconclusive: 9.28 µM [inhibitor, partial curve]
CCOC(=O)N1CCN(S(=O)(=O)c2ccc3c(c2)SC(C)C(=O)N3)CC1 (stereo not drawn) | inconclusive: 18.5 µM [inhibitor, single point]
COc1cccc(CNC(=O)C2CCCN(c3ncnc4c3nc3n4CCCCC3)C2)c1 (stereo not drawn) | inconclusive: 5.22 µM [inhibitor, partial curve]
COc1cccc2cc(C(=O)N(Cc3ccccc3)CC3CCCO3)c(=O)oc12 (stereo not drawn) | inconclusive: 3.7 µM [inhibitor, partial curve, poor fit]
COc1ccc(OC)c(C2CC(=O)Nc3n[nH]c(-c4ccccc4)c32)c1 (stereo not drawn) | inconclusive: 13.1 µM [inhibitor, partial curve]
CCC(C)[C@H](NC(=O)C1CCN(C(=O)[C@H](Cc2ccccc2)NS(=O)(=O)c2ccc(C)cc2)CC1)C(=O)O (stereo partly drawn) | inactive
CC(C)(C)NC(=O)c1nc2nc(-c3ccccc3)cc(C(F)(F)F)n2n1 | inactive
C/C(=N\NC(=O)C(C)Nc1cccc(Cl)c1)c1ccc([N+](=O)[O-])cc1 (stereo not drawn) | inactive
Cc1cc(N/N=C/c2ccc(O)cc2)nc(NS(=O)(=O)c2ccccc2)n1 | inactive
CCCCCCCC(=O)N1CCN(c2cc3c(cc2F)c(=O)c(C(=O)O)cn3CC)CC1 | inconclusive: 2.94 µM [inhibitor, partial curve]
COCCNC(=O)CSc1ccc(-c2nc3ccccc3[nH]2)cn1 | inactive
CCCC(OC(=O)CC1Sc2ccccc2NC1=O)C(=O)NCc1ccco1 (stereo not drawn) | inconclusive: 13.1 µM [inhibitor, single point]
COc1cc(C(=S)N2CCCC2)ccc1OCc1ccc(C)cc1 | inconclusive: 4.15 µM [inhibitor, partial curve, poor fit]
Cc1ccc(CC2CC(=O)N(CCc3ccc4c(c3)OCO4)C2=O)cc1 (stereo not drawn) | inactive
CC(C)(C)c1ccc(/C=C2\SC(=O)N=C2N)cc1 | inconclusive: 11.7 µM [inhibitor, single point]
COc1cc(/C=C2/SC(=S)N(CC(=O)O)C2=O)ccc1OCC(=O)Nc1ccc(C)c(C)c1 | inconclusive: 18.5 µM [inhibitor, partial curve, poor fit]
COc1ccc(-c2cn(-c3ccccc3)nc2CO)cc1 | inactive
O=c1c2c(-c3ccccc3)csc2ncn1/N=C/c1c2ccccc2cc2ccccc12 | inconclusive: 18.5 µM [inhibitor, single point]
